# Measured values as given in the supplement of paper PMC8728848.
# This is one part of the list.
# B1: CLEC5A (Homo sapiens), Q9NY25 (protein)
# chain: MNWHMIISGLIVVVLKVVGMTLFLLYFPQIFNKSNDGFTTTRSYGTVSQIFGSSSPSPNGFITTRSYGTVCPKDWEFYQARCFFLSTSESSWNESRDFCKGKGSTLAIVNTPEKLKFLQDITDAEKYFIGLIYHREEKRWRWINNSVFNGNVTNQNQNFNCATIGLTKTFDAASCDISYRRICEKNAK
# How the values were obtained:
# Experiment in all cases: glycan array binding signal (z-score within array); higher = stronger binding
# Settings in all cases: glycan notation: IUPAC condensed, linker removed
# [1] = target: Gal(b1-3)GlcNAc(b1-3)Gal(b1-4)GlcNAc
# In short: (§1)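 From the Consortium for Functional Glycomics database, 3228 arrays were curated, keeping only those whose protein sequence was available. Binding is given as a within-array Z-score averaged across arrays sharing a protein sequence and across linkers. Negative Z-scores can be read as non-binding.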
# [2] = target: Gal(b1-3)GlcNAc(b1-3)Gal(b1-4)GlcNAc(b1-2)Man(a1-3)[Gal(b1-3)GlcNAc(b1-3)Gal(b1-4)GlcNAc(b1-2)Man(a1-6)]Man(b1-4)GlcNAc(b1-4)GlcNAc
# In short: as §1
# [3] = target: Gal(b1-3)GlcNAc(b1-3)Gal(b1-4)GlcNAc(b1-2)[Gal(b1-3)GlcNAc(b1-3)Gal(b1-4)GlcNAc(b1-6)]Man(a1-6)[Gal(b1-3)GlcNAc(b1-3)Gal(b1-4)GlcNAc(b1-2)Man(a1-3)]Man(b1-4)GlcNAc(b1-4)[Fuc(a1-6)]GlcNAc
# In short: as §1
# [4] = target: Gal(b1-3)GlcNAc(b1-3)Gal(b1-4)GlcNAc(b1-3)Gal(b1-4)Glc
# In short: as §1
# [5] = target: Gal(b1-3)GlcNAc(b1-3)Gal(b1-4)GlcNAc(b1-3)Gal(b1-4)GlcNAc(b1-2)[Gal(b1-3)GlcNAc(b1-3)Gal(b1-4)GlcNAc(b1-3)Gal(b1-4)GlcNAc(b1-6)]Man(a1-6)[Gal(b1-3)GlcNAc(b1-3)Gal(b1-4)GlcNAc(b1-3)Gal(b1-4)GlcNAc(b1-2)Man(a1-3)]Man(b1-4)GlcNAc(b1-4)[Fuc(a1-6)]GlcNAc
# In short: as §1
# [6] = target: Gal(b1-3)GlcNAc(b1-3)Gal(b1-4)GlcNAc(b1-6)[Gal(b1-3)GlcNAc(b1-3)]Gal(b1-4)Glc
# In short: as §1
# [7] = target: Gal(b1-3)GlcNAc(b1-3)Gal(b1-4)[Fuc(a1-3)]GlcNAc
# In short: as §1
# [8] = target: Gal(b1-3)GlcNAc(b1-3)Gal(b1-4)[Fuc(a1-3)]GlcNAc(b1-3)Gal(b1-4)Glc
# In short: as §1
# [9] = target: Gal(b1-3)GlcNAc(b1-3)Gal(b1-4)[Fuc(a1-3)]GlcNAc(b1-6)[Gal(b1-3)GlcNAc(b1-3)]Gal(b1-4)Glc
# In short: as §1
# [10] = target: Gal(b1-3)GlcNAc(b1-3)GalNAc
# In short: as §1
# [11] = target: Gal(b1-3)GlcNAc(b1-3)[Fuc(a1-3)[Gal(b1-4)]GlcNAc(b1-6)]Gal(b1-4)]GlcNAc(b1-6)[Gal(b1-4)]GlcNAc(b1-3)]Gal(b1-4)Glc
# In short: as §1
# [12] = target: Gal(b1-3)GlcNAc(b1-3)[Gal(b1-4)GlcNAc(b1-6)]Gal(b1-4)Glc
# In short: as §1
# [13] = target: Gal(b1-3)GlcNAc(b1-3)[Gal(b1-4)GlcNAc(b1-6)]Gal(b1-4)GlcNAc(b1-6)[Gal(b1-3)GlcNAc(b1-3)]Gal(b1-4)Glc
# In short: as §1
# [14] = target: Gal(b1-3)GlcNAc(b1-6)Gal(b1-4)GlcNAc
# In short: as §1
# [15] = target: Gal(b1-3)GlcNAc(b1-6)GalNAc
# In short: as §1
# [16] = target: Gal(b1-3)GlcNAc(b1-6)[Gal(b1-3)]GalNAc
# In short: as §1
# Gal(b1-3)GlcNAc6S = target: Gal(b1-3)GlcNAc6S
# In short: as §1
# [17] = target: Gal(b1-3)[Fuc(a1-4)]GlcNAc
# In short: as §1
# [18] = target: Gal(b1-3)[Fuc(a1-4)]GlcNAc(b1-2)Man
# In short: as §1
# [19] = target: Gal(b1-3)[Fuc(a1-4)]GlcNAc(b1-2)Man(a1-3)[Gal(b1-3)[Fuc(a1-4)]GlcNAc(b1-2)Man(a1-6)]Man(b1-4)GlcNAc(b1-4)GlcNAc
# In short: as §1
# [20] = target: Gal(b1-3)[Fuc(a1-4)]GlcNAc(b1-2)Man(a1-3)[Gal(b1-3)[Fuc(a1-4)]GlcNAc(b1-2)Man(a1-6)]Man(b1-4)GlcNAc(b1-4)[Fuc(a1-6)]GlcNAc
# In short: as §1
# [21] = target: Gal(b1-3)[Fuc(a1-4)]GlcNAc(b1-3)Gal(b1-3)[Fuc(a1-4)]GlcNAc
# In short: as §1
# [22] = target: Gal(b1-3)[Fuc(a1-4)]GlcNAc(b1-3)Gal(b1-4)Glc
# In short: as §1
# [23] = target: Gal(b1-3)[Fuc(a1-4)]GlcNAc(b1-3)Gal(b1-4)GlcNAc
# In short: as §1
# [24] = target: Gal(b1-3)[Fuc(a1-4)]GlcNAc(b1-3)Gal(b1-4)[Fuc(a1-3)]Glc
# In short: as §1
# [25] = target: Gal(b1-3)[Fuc(a1-4)]GlcNAc(b1-3)Gal(b1-4)[Fuc(a1-3)]GlcNAc
# In short: as §1
# [26] = target: Gal(b1-3)[Fuc(a1-4)]GlcNAc(b1-3)Gal(b1-4)[Fuc(a1-3)]GlcNAc(b1-3)Gal(b1-4)Glc
# In short: as §1
# [27] = target: Gal(b1-3)[Fuc(a1-4)]GlcNAc(b1-3)Gal(b1-4)[Fuc(a1-3)]GlcNAc(b1-6)[Gal(b1-3)[Fuc(a1-4)]GlcNAc(b1-3)]Gal(b1-4)Glc
# In short: as §1
# [28] = target: Gal(b1-3)[Fuc(a1-4)]GlcNAc(b1-3)[Fuc(a1-3)[Gal(b1-4)]GlcNAc(b1-6)]Gal(b1-4)Glc
# In short: as §1
# [29] = target: Gal(b1-3)[Fuc(a1-4)]GlcNAc(b1-6)GalNAc
# In short: as §1
# [30] = target: Gal(b1-3)[GlcNAc(b1-6)]GalNAc
# In short: as §1
# [31] = target: Gal(b1-3)[Neu5Ac(a2-6)]GalNAc
# In short: as §1
# [32] = target: Gal(b1-3)[Neu5Ac(a2-6)]GalNAc(b1-4)Gal(b1-4)Glc
# In short: as §1
# [33] = target: Gal(b1-3)[Neu5Ac(a2-6)]GlcNAc(b1-3)Gal(b1-4)Glc
# In short: as §1
# [34] = target: Gal(b1-3)[Neu5Ac(a2-6)]GlcNAc(b1-4)Gal(b1-4)Glc
# In short: as §1
# [35] = target: Gal(b1-3)[Neu5Ac(a2-6)]GlcNAc(b1-6)Gal(b1-4)Glc
# In short: as §1
# [36] = target: Gal(b1-3)[Neu5Ac(b2-6)]GalNAc
# In short: as §1
# Gal(b1-4)Gal = target: Gal(b1-4)Gal
# In short: as §1
# [37] = target: Gal(b1-4)GalNAc(a1-3)[Fuc(a1-2)]Gal(b1-4)GlcNAc
# In short: as §1
# [38] = target: Gal(b1-4)GalNAc(b1-3)[Fuc(a1-2)]Gal(b1-4)GlcNAc
# In short: as §1
# Gal(b1-4)Glc = target: Gal(b1-4)Glc
# In short: as §1
# Gal(b1-4)Glc6S = target: Gal(b1-4)Glc6S
# In short: as §1
# Gal(b1-4)GlcNAc = target: Gal(b1-4)GlcNAc
# In short: as §1
# [39] = target: Gal(b1-4)GlcNAc(a1-6)Gal(b1-4)GlcNAc
# In short: as §1
# Gal(b1-4)GlcNAc(b1-2)Man = target: Gal(b1-4)GlcNAc(b1-2)Man
# In short: as §1
binder,measurement,setting,value
B1,glycan array binding signal (z-score),[1],-0.278
same,glycan array binding signal (z-score),[2],0.297
same,glycan array binding signal (z-score),[3],-0.042
same,glycan array binding signal (z-score),[4],0.258
same,glycan array binding signal (z-score),[5],0.061
same,glycan array binding signal (z-score),[6],-0.121
same,glycan array binding signal (z-score),[7],-0.082
same,glycan array binding signal (z-score),[8],-0.32
same,glycan array binding signal (z-score),[9],-0.154
same,glycan array binding signal (z-score),[10],-0.222
same,glycan array binding signal (z-score),[11],-0.32
same,glycan array binding signal (z-score),[12],-0.32
same,glycan array binding signal (z-score),[13],-0.32
same,glycan array binding signal (z-score),[14],-0.153
same,glycan array binding signal (z-score),[15],-0.196
same,glycan array binding signal (z-score),[16],0.136
same,glycan array binding signal (z-score),Gal(b1-3)GlcNAc6S,-0.17
same,glycan array binding signal (z-score),[17],-0.068
same,glycan array binding signal (z-score),[18],-0.063
same,glycan array binding signal (z-score),[19],1.69
same,glycan array binding signal (z-score),[20],0.15
same,glycan array binding signal (z-score),[21],-0.207
same,glycan array binding signal (z-score),[22],0.451
same,glycan array binding signal (z-score),[23],-0.073
same,glycan array binding signal (z-score),[24],-0.32
same,glycan array binding signal (z-score),[25],-0.037
same,glycan array binding signal (z-score),[26],0.933
same,glycan array binding signal (z-score),[27],-0.32
same,glycan array binding signal (z-score),[28],-0.32
same,glycan array binding signal (z-score),[29],-0.043
same,glycan array binding signal (z-score),[30],-0.176
same,glycan array binding signal (z-score),[31],-0.023
same,glycan array binding signal (z-score),[32],-0.32
same,glycan array binding signal (z-score),[33],-0.32
same,glycan array binding signal (z-score),[34],-0.102
same,glycan array binding signal (z-score),[35],-0.42
same,glycan array binding signal (z-score),[36],-0.021
same,glycan array binding signal (z-score),Gal(b1-4)Gal,-0.219
same,glycan array binding signal (z-score),[37],-0.154
same,glycan array binding signal (z-score),[38],0.157
same,glycan array binding signal (z-score),Gal(b1-4)Glc,-0.243
same,glycan array binding signal (z-score),Gal(b1-4)Glc6S,-0.201
same,glycan array binding signal (z-score),Gal(b1-4)GlcNAc,-0.227
same,glycan array binding signal (z-score),[39],0.005
same,glycan array binding signal (z-score),Gal(b1-4)GlcNAc(b1-2)Man,-0.063
